Among all 39,000 compounds or so, about 220 (0.56%) showed activity. The list shows a part of the results.
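Also: static incubation at 37 °C against the wild-type strain, values averaged over two biological replicates.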

This assay deals with Escherichia coli K-12 BW25113. Nature of the assay: relative growth (OD600 normalised to plate interquartile mean) (fraction); higher = less growth inhibition, active = 0.2 or less. Conditions: 50 µM; LB; incubation time: overnight (16-24 h).
Regarding `C[C@@H]1CN([C@H](C)CO)C(=O)Cc2cc(NC(=O)Cc3cn(C)c4ccccc34)ccc2O[C@@H]1CN(C)Cc1ccc(Cl)c(Cl)c1`, the relative growth was inactive: 1.03.
Consider `C[C@H]1CN([C@@H](C)CO)C(=O)Cc2cc(NC(=O)Cn3cnnn3)ccc2O[C@H]1CN(C)C(=O)Nc1cccc2ccccc12`, for which the relative growth is inactive: 0.994.
The result for `CS(=O)(=O)c1ccc(S(C)(=O)=O)s1` reads inactive: 0.903; that for `COc1ccc(NC(=O)Nc2ccc3c(c2)C(=O)N([C@H](C)CO)C[C@H](C)[C@H](CN(C)S(=O)(=O)c2ccc(Cl)cc2)OCCCC[C@@H](C)O3)cc1`, inactive: 1.01; that for `CC(C)NC(=O)N(C)C[C@H]1Oc2c(NS(=O)(=O)c3cn(C)cn3)cccc2C(=O)N([C@@H](C)CO)C[C@@H]1C`, inactive: 0.988.
For the compound `C[C@H]1CN([C@@H](C)CO)C(=O)c2cc(NS(=O)(=O)c3ccccc3)ccc2O[C@H]1CN(C)Cc1ccc(Cl)c(Cl)c1`, the relative growth is inactive: 1.
The result for `CN1C(=O)c2cc(NC(=O)c3cnccn3)ccc2OC[C@@H]2O[C@@H](CC(=O)N[C@@H]3CCN(Cc4ccccc4)C3)CC[C@H]21` reads inactive: 1.02.
Next, `COc1ccc(NC(=O)N(C)C[C@@H]2OCCCC[C@@H](C)Oc3ccc(NC(=O)Nc4cccc5ccccc45)cc3C(=O)N([C@H](C)CO)C[C@@H]2C)cc1`: inactive: 1.04; `O=C(C[C@@H]1CC=CCCC(=O)OC[C@@H](Cc2c[nH]c3ccccc23)NC1=O)N[C@H](CO)Cc1ccccc1`: inactive: 1; `CN1CCN(C(=O)C[C@@H]2C=C[C@H](NS(=O)(=O)c3cccc(F)c3)[C@@H](CO)O2)CC1`: inactive: 1.
Next, `OCC1OC(OC2C(O)C(CO)OC2(CO)OC2OC(CO)C(O)C(O)C2O)C(O)C(O)C1O` (stereo unspecified): inactive: 1.08.
Take `COc1ccccc1C#Cc1cnc2c(c1)C(=O)N([C@@H](C)CO)C[C@H](C)[C@H](CN(C)S(=O)(=O)c1cn(C)cn1)O2`: the relative growth was inactive: 1.01.
In the case of `C[C@@H]1CCCCO[C@@H](CN(C)C(=O)Cc2ccccc2)[C@H](C)CN([C@H](C)CO)C(=O)c2cc(NC(=O)Nc3ccccc3)ccc2O1`, the relative growth was inactive: 0.986.
The result for `C[C@H](O)C#Cc1cnc2c(c1)C(=O)N([C@H](C)CO)C[C@H](C)[C@@H](CN(C)Cc1cncnc1)O2` reads inactive: 1; that for `CN1C(=O)c2cc(NC(=O)c3ccc(C(F)(F)F)cc3)ccc2OC[C@H]2O[C@H](CC(=O)NC3Cc4ccccc4C3)CC[C@H]21`, inactive: 0.995.
The result for `C[C@H]1CCCCO[C@@H](CN(C)CC2CC2)[C@@H](C)CN([C@@H](C)CO)C(=O)c2cc(NC(=O)Nc3ccc(F)cc3)ccc2O1` reads inactive: 0.952.
Next, `C[C@@H]1CN([C@H](C)CO)S(=O)(=O)c2ccc(-c3ccncc3)cc2O[C@H]1CN(C)C(=O)c1ccc2c(c1)OCO2`: inactive: 1; `CC(=O)N1[C@@H]2c3cccc(=O)n3C[C@H]1[C@H](CO)[C@H]2C(=O)N1CCc2ccccc2C1`: inactive: 1.02.
As to `C[C@@H]1CN([C@H](C)CO)C(=O)CCCn2nncc2CO[C@@H]1CN(C)Cc1cccc2c1OCCCO2`, the relative growth is inactive: 1.
The result for `CC(C)CC#Cc1ccc2c(c1)O[C@H](CN(C)C(=O)NC1CCCC1)[C@H](C)CN([C@@H](C)CO)S2(=O)=O` reads inactive: 0.997; that for `O=C1c2cccc(O)c2C(=O)c2c(O)cccc21`, inactive: 0.979; that for `C[C@@H]1CN([C@H](C)CO)C(=O)c2cc(NC(=O)CCN3CCOCC3)ccc2O[C@@H]1CN(C)S(C)(=O)=O`, inactive: 1.01.
The result for `CCCNC(=O)N(C)C[C@H]1Oc2ncc(-c3ccc(C(=O)N(C)C)cc3)cc2C(=O)N([C@@H](C)CO)C[C@H]1C` reads inactive: 1.03; that for `NCc1nccs1`, inactive: 0.957; that for `Nc1ccc(Cl)nn1`, inactive: 0.999.
The result for `CC[n+]1oc(-c2ccccc2)cc1C` reads inactive: 1.02.
Turning to `Cc1noc(C)c1S(=O)(=O)Nc1cccc2c1O[C@@H](CN(C)Cc1ccc(-c3ccccc3)cc1)[C@@H](C)CN([C@@H](C)CO)C2=O`, the relative growth was inactive: 1.05.
The result for `Cc1ccc(S(=O)(=O)N(C)C[C@@H]2Oc3ccc(NC(=O)CCN4CCOCC4)cc3CC(=O)N([C@H](C)CO)C[C@H]2C)cc1` reads inactive: 0.993; that for `C[C@H]1CN([C@@H](C)CO)S(=O)(=O)c2ccc(C#Cc3ccncc3)cc2O[C@@H]1CN(C)S(=O)(=O)c1ccccc1`, inactive: 1.03; that for `O=C(C[C@@H]1CC[C@H]2[C@@H](COC[C@@H](O)CN2C(=O)Nc2ccc(F)cc2)O1)NCCCN1CCOCC1`, inactive: 0.98.
The result for `C[C@@H]1CCCCO[C@H](CN(C)S(=O)(=O)c2ccccc2)[C@H](C)CN([C@@H](C)CO)C(=O)c2cc(NS(=O)(=O)c3ccc(Cl)cc3)ccc2O1` reads inactive: 1.01; that for `COCC(=O)N(C)C[C@@H]1Oc2cc(C#CCN(C)C)ccc2S(=O)(=O)N([C@@H](C)CO)C[C@@H]1C`, inactive: 1.02.
The result for `Cc1noc(C)c1S(=O)(=O)N(C)C[C@H]1Oc2ccc(NC(=O)CCN3CCOCC3)cc2C(=O)N([C@H](C)CO)C[C@H]1C` reads inactive: 1.02; that for `C[C@@H]1CN([C@H](C)CO)C(=O)Cc2cc(NC(=O)Cn3cnnn3)ccc2O[C@@H]1CN(C)Cc1ccncc1`, inactive: 1.03; that for `O=C(C[C@@H]1CC[C@@H]2[C@H](COC[C@H](O)CN2S(=O)(=O)c2ccc(Oc3ccccc3)cc2)O1)NC1CCC1`, inactive: 1.01.
On to `C[C@@H]1CCCCO[C@@H](CN(C)C(=O)NC2CCCCC2)[C@@H](C)CN([C@H](C)CO)C(=O)c2cc(NC(=O)CCCCCC(=O)Nc3ccccc3N)ccc2O1`, for which the relative growth was inactive: 0.985.
Turning to `C[C@H](CO)N1C[C@H](C)[C@@H](CN(C)C(=O)Nc2ccc3c(c2)OCO3)Oc2ccc(NC(=O)CCCN(C)C)cc2C1=O`, the relative growth was inactive: 1.
Take `CC[N+](C)(CC)CCOC(=O)C(O)(c1ccccc1)C1CCCCC1.[Br-]` (stereo unspecified): the relative growth was inactive: 1.17.
For `C[C@H]1CN([C@@H](C)CO)C(=O)c2cc(-c3ccncc3)cnc2O[C@@H]1CN(C)S(=O)(=O)c1ccc(F)cc1`, the relative growth is inactive: 0.991.
Next, `COCC(=O)Nc1ccc2c(c1)OC[C@@H](C)N(C(=O)c1ccccc1F)C[C@@H](C)[C@@H](OC)CN(C)C2=O`: inactive: 0.986; `C[C@@H]1CN([C@@H](C)CO)C(=O)Cc2cc(NC(=O)c3ccncc3)ccc2O[C@H]1CN(C)S(=O)(=O)c1cccs1`: inactive: 1.01.
Consider `C[C@@H]1CN([C@@H](C)CO)C(=O)c2cc(NS(=O)(=O)c3cn(C)cn3)ccc2O[C@@H]1CN(C)S(=O)(=O)c1ccccc1`, for which the relative growth was inactive: 1.01.
Next, `C[C@H]1CN([C@@H](C)CO)S(=O)(=O)c2ccc(Br)cc2O[C@H]1CN(C)C(=O)C1CCCCC1`: inactive: 1; `Cc1ccc(S(=O)(=O)Nc2ccc3c(c2)C(=O)N([C@@H](C)CO)C[C@@H](C)[C@@H](CN(C)C(=O)NC(C)C)O3)cc1`: inactive: 0.995.
The result for `C[C@H]1CN([C@@H](C)CO)C(=O)c2cc(C#CC3(O)CCCC3)cnc2O[C@H]1CN(C)C(=O)Cc1cccnc1` reads inactive: 1.04; that for `C[C@@H]1CN([C@@H](C)CO)C(=O)c2c(c3ccccc3n2C)-c2ccccc2CO[C@H]1CN(C)C(=O)Nc1ccccc1C(F)(F)F`, inactive: 1.01; that for `CC(C)NNC(=O)c1ccncc1`, inactive: 0.98.
The result for `C[C@H]1CN([C@@H](C)CO)C(=O)c2cccc(NC(=O)c3cnccn3)c2O[C@H]1CN(C)C(=O)Nc1ccc2c(c1)OCO2` reads inactive: 0.993; that for `Cc1noc(C)c1S(=O)(=O)N(C)C[C@@H]1OCCCC[C@H](C)Oc2ccc(NC(=O)Nc3ccc(F)cc3)cc2C(=O)N([C@H](C)CO)C[C@@H]1C`, inactive: 1; that for `CO[C@@H]1CN(C)C(=O)c2cc(NS(=O)(=O)c3cn(C)cn3)ccc2OC[C@@H](C)N(Cc2cccc(F)c2)C[C@@H]1C`, inactive: 1.02.
Take `CNCC(=O)O`: the relative growth is inactive: 0.986.
Consider `C[C@H](CO)N1C[C@H](C)[C@H](CN(C)S(=O)(=O)c2ccccc2)Oc2ccc(NC(=O)Cn3cnnn3)cc2CC1=O`, for which the relative growth was inactive: 0.985.
Next, `COc1cccc2ccc(Cl)nc12`: inactive: 0.995; `C[C@H]1CN([C@@H](C)CO)C(=O)c2cccc(NC(=O)NC3CCCCC3)c2O[C@H]1CN(C)Cc1ccc(C(F)(F)F)cc1`: inactive: 0.985; `Cc1n[nH]c(C)c1CC(=O)O`: inactive: 0.991.
Next, `C[C@@H]1CN([C@H](C)CO)C(=O)c2cccc(NS(=O)(=O)c3cccs3)c2O[C@@H]1CN(C)Cc1ccc(Oc2ccccc2)cc1`: inactive: 1.03.
The result for `C/C=C(/C)C(=O)O[C@H]1[C@@H](OC(C)=O)[C@@]2(CO)[C@@H](O)C[C@@]3(C)C(=CC[C@H]4[C@@]5(C)CC[C@@H](O[C@H]6O[C@H](C(=O)O)[C@@H](O[C@H]7O[C@@H](CO)[C@@H](O)[C@@H](O)[C@@H]7O)[C@@H](O)[C@@H]6O[C@H]6O[C@@H](CO)[C@@H](O)[C@@H](O)[C@@H]6O)[C@@](C)(CO)[C@@H]5CC[C@]43C)[C@@H]2CC1(C)C` reads inactive: 0.94; that for `C[C@@]1(O)[C@H](O)[C@@H](CO)O[C@H]1n1ccc(N)nc1=O`, inactive: 1.01.
Consider `C[C@H]1CN([C@@H](C)CO)C(=O)c2cccc(NC(=O)NC3CCCCC3)c2O[C@@H]1CN(C)Cc1ccc(C(F)(F)F)cc1`, for which the relative growth was inactive: 0.846.
Next, `C[C@@H]1CCCCO[C@H](CN(C)C(=O)Nc2ccc(F)cc2)[C@H](C)CN([C@H](C)CO)C(=O)c2cc(NC(=O)Nc3ccc(C(F)(F)F)cc3)ccc2O1`: inactive: 0.991.
Next, `C[C@@H]1CN([C@@H](C)CO)C(=O)c2cc(NC(=O)Cn3cnnn3)ccc2O[C@@H]1CN(C)Cc1ccc(C(F)(F)F)cc1`: inactive: 1.06.

For the origin of these results see the supplement of paper PMC9446081.
